Assay results as given in the supplement of paper PMC10126150.
Values marked as one replicate rest on one cluster of the flow cell; about a third of the high ones do not repeat.

Test system: ATP
Test: switch fluorescence ratio, 500 uM ATP over buffer (Cy3 cluster intensity, sum of 5 cycles each) (fold (ratio)); higher = stronger signal-on switching upon ATP binding; sequences stand for … in TCGTCGGCAGCGTCAGATGTGTATAAGAGACAGTTTTTTTTTTTTTTTTTTTTTTTTT…TC
Settings: aptamer strand: ATP DNA aptamer (quencher-CACCTGGGGGAGTATTGCGGAGGAAGG + anchor), 100 nM annealed; ATP concentration: 500 uM; one replicate
Outline: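 After annealing to 100 nM quencher-labelled ATP aptamer, Cy3-labelled switching-strand clusters on a modified Illumina MiSeq flow-cell were imaged in selection buffer. A second image followed after 15 min with 500 uM ATP at 22 °C, and five such buffer/ATP cycles were done, each separated by NaOH stripping and re-annealing. The fluorescence ratio, averaged per switch-domain sequence, is summed target-cycle over summed buffer-cycle Cy3 intensity per cluster, with clusters outside 100-1000 RFU excluded.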
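Further: ATP exposure 15 min at 22 °C before imaging.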

| Sequence | switch fluorescence ratio |
| --- | --- |
| GGTGGTCTCG | 1.28 |
| GGTGGTGAAC | 0.945 |
| GGTGGTTGAC | 1.05 |
| GGTGTAAAGA | 0.987 |
| GGTGTACGC | 0.984 |
| GGTGTACTTT | 0.983 |
| GGTGTCTAGC | 1.02 |
| GGTGTCTAGG | 1 |
| GGTGTGCCAG | 1.04 |
| GGTGTGCTGC | 1.03 |
| GGTGTGGAG | 0.997 |
| GGTGTGGCTG | 1.07 |
| GGTGTGTAGC | 0.991 |
| GGTGTGTCCG | 1.03 |
| GGTGTTTGTG | 1.03 |
| GGTTAAAAAC | 0.923 |
| GGTTAATATT | 1.03 |
| GGTTAATGAT | 1.02 |
| GGTTAATTGA | 0.989 |
| GGTTACATT | 1.02 |
| GGTTACATTT | 1.03 |
| GGTTACGATT | 1.03 |
| GGTTACGGGA | 0.968 |
| GGTTACTCCT | 1.03 |
| GGTTATCGG | 0.942 |

| Sequence | switch fluorescence ratio |
| --- | --- |
| GGTTATCGTC | 0.991 |
| GGTTCCCCCA | 1.08 |
| GGTTCCCGCT | 1.09 |
| GGTTCCTGAG | 1.04 |
| GGTTCGAGGA | 0.984 |
| GGTTCGTAGA | 1 |
| GGTTCGTGAT | 0.996 |
| GGTTCGTTAG | 1.03 |
| GGTTCTGGCT | 0.954 |
| GGTTCTGTTG | 0.994 |
| GGTTGAAGAA | 0.995 |
| GGTTGAGCAA | 1.37 |
| GGTTGATGAA | 0.969 |
| GGTTGATTGC | 1.03 |
| GGTTGCGACA | 0.99 |
| GGTTGGTATC | 0.957 |
| GGTTGGTCCA | 1.04 |
| GGTTTAAGCT | 1.02 |
| GGTTTAGGTA | 0.994 |
| GGTTTATGTG | 1 |
| GGTTTCCGTC | 0.974 |
| GGTTTCCTGA | 0.989 |
| GGTTTCGATT | 0.976 |
| GGTTTGAATG | 1.05 |
| GGTTTGCCCC | 1.04 |

| Sequence | switch fluorescence ratio |
| --- | --- |
| GGTTTGTGGA | 1.01 |
| GGTTTTAAGC | 0.976 |
| GGTTTTATTC | 0.978 |
| GTAAAAAGAC | 1.11 |
| GTAAAAGAAA | 0.946 |
| GTAAAGAAAT | 1.08 |
| GTAAAGACGC | 1.04 |
| GTAAAGGGGT | 1 |
| GTAAAGTCCA | 0.982 |
| GTAAATAGCC | 1.03 |
| GTAACCGATA | 1.03 |
| GTAACCTAAT | 1.03 |
| GTAACGACCG | 1.01 |
| GTAACGCCAA | 1.21 |
| GTAAGATGTA | 0.996 |
| GTAAGATTGG | 0.971 |
| GTAAGCGGCA | 1.01 |
| GTAAGGGGCC | 1.01 |
| GTAAGGTATC | 0.958 |
| GTAAGTAAGC | 1.31 |
| GTAAGTCCGT | 0.995 |
| GTAAGTGCGG | 1.05 |
| GTAAGTTTAG | 0.992 |
| GTAAGTTTT | 0.999 |
| GTAATACGG | 1.31 |

| Sequence | switch fluorescence ratio |
| --- | --- |
| GTAATATAGT | 0.989 |
| GTAATCACAT | 0.995 |
| GTAATCGAAA | 1.03 |
| GTAATCTTAA | 1.01 |
| GTAATGGCTA | 0.992 |
| GTAATTGACG | 1.03 |
| GTAATTTGGA | 0.977 |
| GTACCATAGC | 1.08 |
| GTACCTACAC | 1.3 |
| GTACCTGCAA | 1.7 |
| GTACGAGCTA | 1.15 |
| GTACGGAGGT | 0.984 |
| GTACGGTCCT | 1.02 |
| GTACGTATGG | 1.13 |
| GTACTCATTG | 0.97 |
| GTACTCCAGA | 1.1 |
| GTACTCGCAT | 1.34 |
| GTACTGCCTC | 1.08 |
| GTACTTACGG | 1.48 |
| GTAGAAAGCC | 1.06 |
| GTAGAACTGT | 1.05 |
| GTAGAAGGAA | 1.01 |
| GTAGATATGG | 1.02 |
| GTAGATGTAA | 1.02 |
| GTAGATTGGG | 0.979 |

| Sequence | switch fluorescence ratio |
| --- | --- |
| GTAGCAAGTG | 1.52 |
| GTAGCAGCTC | 2.19 |
| GTAGCCCTAG | 1.01 |
| GTAGCTTGAA | 1.01 |
| GTAGGAAAAT | 1.03 |
| GTAGGAATAG | 2.46 |
| GTAGGACTAT | 1.03 |
| GTAGGATGCA | 1.01 |
| GTAGGCCTGT | 1.01 |
| GTAGGGTCTG | 0.994 |
| GTAGGTCCGC | 1.04 |
| GTAGGTGC | 1.19 |
| GTAGTAGTTA | 1.05 |
| GTAGTATGG | 0.962 |
| GTAGTGATAA | 1.29 |
| GTAGTGATGT | 1.04 |
| GTAGTGTGT | 1 |
| GTAGTGTGTT | 0.979 |
| GTAGTGTTTT | 0.972 |
| GTAGTTCGAC | 1.01 |
| GTAGTTGATA | 1.02 |
| GTAGTTGCGT | 0.973 |
| GTATAATGA | 1 |
| GTATACTTC | 1.11 |
| GTATAGTGC | 0.95 |

| Sequence | switch fluorescence ratio |
| --- | --- |
| GTATATGCCG | 1.11 |
| GTATATGTAT | 0.972 |
| GTATATTGGT | 0.984 |
| GTATCAAGCG | 1.03 |
| GTATCATGAC | 1.01 |
| GTATCCTCCC | 1.25 |
| GTATCGAGTG | 0.964 |
| GTATCGGGTG | 1.07 |
| GTATCTATAA | 1.03 |
| GTATCTGTTT | 0.964 |
| GTATGACGAT | 1.02 |
| GTATGAGATA | 1.01 |
| GTATGATCGC | 1.02 |
| GTATTAGTCT | 1.07 |
| GTATTATTAG | 1.02 |
| GTATTCACGT | 1.03 |
| GTATTGACGG | 1.02 |
| GTATTTTGGA | 1.02 |
| GTCAAAGAGC | 0.971 |
| GTCAAATTTC | 1.01 |
| GTCAACGTCG | 0.971 |
| GTCAATGCGT | 1.08 |
| GTCAATTAGA | 1.03 |
| GTCACAGCCG | 1.08 |
| GTCACCAATT | 1.01 |

| Sequence | switch fluorescence ratio |
| --- | --- |
| GTCACGGTCG | 1.03 |
| GTCACTAGGC | 1.01 |
| GTCAGGAATG | 1.05 |
| GTCAGGGTCT | 1.01 |
| GTCAGGTTTT | 0.976 |
| GTCAGTCAAC | 1 |
| GTCATAGCAC | 1.02 |
| GTCATCATGT | 1.04 |
| GTCATCCGAG | 1.29 |
| GTCATCCTGG | 1.04 |
| GTCATGTCGT | 1.01 |
| GTCATGTGGG | 0.978 |
| GTCATTAAGT | 1.02 |
| GTCATTTGGG | 0.969 |
| GTCATTTGTT | 1.06 |
| GTCCAACGTT | 0.996 |
| GTCCACCC | 1.02 |
| GTCCACTCGG | 0.967 |
| GTCCAGGCCT | 1.02 |
| GTCCCCAAGC | 1.17 |
| GTCCCCGGTA | 1.04 |
| GTCCGTCCAA | 1.22 |
| GTCCTAGCTA | 1.06 |
| GTCCTCTATA | 1.04 |
| GTCCTGAGAA | 1.01 |

| Sequence | switch fluorescence ratio |
| --- | --- |
| GTCCTGCGCC | 2.15 |
| GTCCTTCCCG | 2.42 |
| GTCCTTCGGT | 0.987 |
| GTCGAACTGT | 0.995 |
| GTCGACGTTG | 0.997 |
| GTCGAGCTAG | 1 |
| GTCGAGGGGT | 0.984 |
| GTCGATGGGA | 1 |
| GTCGCACGTG | 1.06 |
| GTCGCCAAGC | 1.02 |
| GTCGCCAGC | 0.987 |
| GTCGCCATAT | 1.03 |
| GTCGCGCTCA | 0.954 |
| GTCGGAAGG | 0.977 |
| GTCGGACAGG | 1.05 |
| GTCGGCCACG | 0.985 |
| GTCGGCGTAT | 1.07 |
| GTCGGTGGGC | 0.982 |
| GTCGGTGTTT | 0.99 |
| GTCGTTAAGC | 1.01 |
| GTCGTTAATG | 0.945 |
| GTCGTTGTTG | 0.99 |
| GTCGTTTACG | 1 |
| GTCGTTTCCT | 1.01 |
| GTCTACGGTG | 0.976 |
